# Results: article PMC5892938
# The other results are listed elsewhere or left out. At the low end of the ranking the order means little.
# Molecular target: GST-SBP-SLBP (stem-loop binding protein) (UniProt Q14493)
# Assay: targeted RNA Bind-n-Seq;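 note: DESeq read counts versus GST-SBP nonspecific binding control pulldown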
# Conditions: RBNS binding buffer: 25 mM Tris pH 7.5, 150 mM KCl, 3 mM MgCl2, 0.1% Tween, 0.5 mg/mL BSA, 1 mM DTT; 27 nM protein, 750 pM RNA pool; temperature not stated; high values mean tight binding
row,Sequence,binding signal (log2 fold change)
1,GGUCACGUCUCAAUCAACUCUUUUUCCAGGGAAACCCCUGGUUAUGUCAACAGCUCGCAGUCAAG,0.143
2,GGUCACGUCUCAAUCAACUCAUUUCCAGGAGUUUACUCCUGCAUACUCAACAGCUCGCAGUCAAG,0.087
3,GGUCACGUCUCAAUCAACUCAACUUCAGGAGUUUACUCCUGUAUUUUCAACAGCUCGCAGUCAAG,-0.336
4,GGUCACGUCUCAAUCAACUCUACUCCAGGAGUUUUCUCCUGUAUAUUCAACAGCUCGCAGUCAAG,0.0154
5,GGUCACGUCUCAAUCAACUCUACUCCAGGAGUUUUCUCCUGCAUUUUCAACAGCUCGCAGUCAAG,-0.0918
6,GGUCACGUCUCAAUCAACUCAUUUUCAGGAGUUUCCUCCUGCUUACUCAACAGCUCGCAGUCAAG,0.0883
7,GGUCACGUCUCAAUCAACUCAACUUCCAGGGAAAACCCUGGUUUACUCAACAGCUCGCAGUCAAG,0.0378
8,GGUCACGUCUCAAUCAACUCAUCCUCCAGGGAAAGCCCUGGCAUACUCAACAGCUCGCAGUCAAG,-0.0738
9,GGUCACGUCUCAAUCAACUCCUACGAGGGGGGGAAAACCCCUUUACCCUCACACUCAACAGCUCGCAGUCAAG,-0.0391
10,GGUCACGUCUCAAUCAACUCUUUCUCCAGGGAAAGCCCUGGCUAUCUCAACAGCUCGCAGUCAAG,-0.103
11,GGUCACGUCUCAAUCAACUCAAUUCCCAGGGAAAGCCCUGGUUAAUUCAACAGCUCGCAGUCAAG,-0.00202
12,GGUCACGUCUCAAUCAACUCUAUUCCAGGAGUUUUCUCCUGCAAAUUCAACAGCUCGCAGUCAAG,0.117
13,GGUCACGUCUCAAUCAACUCACAAGAGGGGGGGAAAACCCCUUUACCCUCCACCUCAACAGCUCGCAGUCAAG,0.24
14,GGUCACGUCUCAAUCAACUCAUUCGAGGGGGGGAAAACCCCUUUACCCUCUUCAUCAACAGCUCGCAGUCAAG,0.175
15,GGUCACGUCUCAAUCAACUCAUUUUCAGGAGUUUACUCCUGUUAACUCAACAGCUCGCAGUCAAG,-0.0284
16,GGUCACGUCUCAAUCAACUCAAUUCCAGGAGUUUACUCCUGUUUACUCAACAGCUCGCAGUCAAG,0.0155
17,GGUCACGUCUCAAUCAACUCCAUAGAGGGGGGGAAAACCCCUUUACCCUCACCUUCAACAGCUCGCAGUCAAG,-0.0281
18,GGUCACGUCUCAAUCAACUCCUCCGAGGGGGGGAAAACCCCUUUACCCUCAUCAUCAACAGCUCGCAGUCAAG,-0.198
19,GGUCACGUCUCAAUCAACUCAUCCCCCAGGGAAAUCCCUGGUAAUUUCAACAGCUCGCAGUCAAG,0.241
20,GGUCACGUCUCAAUCAACUCUUUUUCCAGGGAAAUCCCUGGUUAUUUCAACAGCUCGCAGUCAAG,0.112
21,GGUCACGUCUCAAUCAACUCUUCGCCCAGGGAAAGCCCUGGUAUUCUCAACAGCUCGCAGUCAAG,-0.163
22,GGUCACGUCUCAAUCAACUCACUAGAGGGGGGGAAAACCCCUUUACCCUCGAAAUCAACAGCUCGCAGUCAAG,0.0521
23,GGUCACGUCUCAAUCAACUCAUUUUCCAGGGAAACCCCUGGUAUUUUCAACAGCUCGCAGUCAAG,-0.088
24,GGUCACGUCUCAAUCAACUCAACUCCCAGGGAAAACCCUGGUUUAUUCAACAGCUCGCAGUCAAG,-0.00236
25,GGUCACGUCUCAAUCAACUCAUUUUCAGGAGUUUUCUCCUGUUAUCUCAACAGCUCGCAGUCAAG,0.171

row,Sequence,binding signal (log2 fold change)
1,GGUCACGUCUCAAUCAACUCUCACGAGGGGGGGAAAACCCCUUUACCCUCAUCUUCAACAGCUCGCAGUCAAG,-0.0599
2,GGUCACGUCUCAAUCAACUCCUAAGAGGGGGGGAAAACCCCUUUACCCUCCACUUCAACAGCUCGCAGUCAAG,-0.07
3,GGUCACGUCUCAAUCAACUCUUCUUCCAGGGAAAACCCUGGCUUUCUCAACAGCUCGCAGUCAAG,-0.0269
4,GGUCACGUCUCAAUCAACUCUUCCUCCAGGGAAACCCCUGGCAUAUUCAACAGCUCGCAGUCAAG,-0.187
5,GGUCACGUCUCAAUCAACUCUUCUCCAGGAGUUUUCUCCUGUUUUGUCAACAGCUCGCAGUCAAG,0.00732
6,GGUCACGUCUCAAUCAACUCCCUCGAGGGGGGGAAAACCCCUUUACCCUCUUCUUCAACAGCUCGCAGUCAAG,-0.52
7,GGUCACGUCUCAAUCAACUCAUUCCCCAGGGAAAGCCCUGGUUUUCUCAACAGCUCGCAGUCAAG,-0.17
8,GGUCACGUCUCAAUCAACUCAUUCUCAGGAGUUUACUCCUGCAUACUCAACAGCUCGCAGUCAAG,0.0226
9,GGUCACGUCUCAAUCAACUCUUCCUCCAGGGAAAGCCCUGGCAAAUUCAACAGCUCGCAGUCAAG,-0.518
10,GGUCACGUCUCAAUCAACUCUCAAGAGGGGGGGAAAACCCCUUUGCCCUCACCAUCAACAGCUCGCAGUCAAG,-0.277
11,GGUCACGUCUCAAUCAACUCAUGUCCAGGAGUUUACUCCUGCUUAUUCAACAGCUCGCAGUCAAG,-0.138
12,GGUCACGUCUCAAUCAACUCAUCUUCAGGAGUUUCCUCCUGUUUAGUCAACAGCUCGCAGUCAAG,0.0284
13,GGUCACGUCUCAAUCAACUCCUAAGAGGGGGGGAAAACCCCUUUGCCCUCAAUGUCAACAGCUCGCAGUCAAG,0.232
14,GGUCACGUCUCAAUCAACUCUUCCUCCAGGGAAAGCCCUGGUAUACUCAACAGCUCGCAGUCAAG,0.0345
15,GGUCACGUCUCAAUCAACUCACAUGAGGGGGGGAAAACCCCUUUACCCUCCUAUUCAACAGCUCGCAGUCAAG,-0.583
16,GGUCACGUCUCAAUCAACUCGCAAGAGGGGGGGAAAACCCCUUUACCCUCAAAAUCAACAGCUCGCAGUCAAG,0.0808
17,GGUCACGUCUCAAUCAACUCUAUUCCAGGAGUUUGCUCCUGCAUUUUCAACAGCUCGCAGUCAAG,-0.0251
18,GGUCACGUCUCAAUCAACUCCCUCGAGGGGGGGAAAACCCCUUUACCCUCUAUCUCAACAGCUCGCAGUCAAG,-0.555
19,GGUCACGUCUCAAUCAACUCAGUCCCAGGAGUUUACUCCUGCAAUUUCAACAGCUCGCAGUCAAG,-0.107
20,GGUCACGUCUCAAUCAACUCCCAAGAGGGGGGGAAAACCCCUUUACCCUCCAUAUCAACAGCUCGCAGUCAAG,-0.243
21,GGUCACGUCUCAAUCAACUCUUUUUCCAGGGAAAUCCCUGGCGUAUUCAACAGCUCGCAGUCAAG,-0.0428
22,GGUCACGUCUCAAUCAACUCUAUAGAGGGGGGGAAAACCCCUUUACCCUCAUUCUCAACAGCUCGCAGUCAAG,-0.512
23,GGUCACGUCUCAAUCAACUCCUCCGAGGGGGGGAAAACCCCUUUACCCUCACCAUCAACAGCUCGCAGUCAAG,0.125
24,GGUCACGUCUCAAUCAACUCAUCCUCAGGAGUUUCCUCCUGCUUUUUCAACAGCUCGCAGUCAAG,0.0537
25,GGUCACGUCUCAAUCAACUCCCCAGAGGGGGGGAAAACCCCUUUACCCUCCAUAUCAACAGCUCGCAGUCAAG,0.573

row,Sequence,binding signal (log2 fold change)
1,GGUCACGUCUCAAUCAACUCAUUUCCAGGAGUUUUCUCCUGUUUAGUCAACAGCUCGCAGUCAAG,0.0322
2,GGUCACGUCUCAAUCAACUCUAUCCCAGGAGUUUCCUCCUGUAAUUUCAACAGCUCGCAGUCAAG,-0.0381
3,GGUCACGUCUCAAUCAACUCAAUAGAGGGGGGGAAAACCCCUUUGCCCUCAACCUCAACAGCUCGCAGUCAAG,0.157
4,GGUCACGUCUCAAUCAACUCUUACGAGGGGGGGAAAACCCCUUUACCCUCUAUCUCAACAGCUCGCAGUCAAG,-0.131
5,GGUCACGUCUCAAUCAACUCUUCUCCAGGAGUUUUCUCCUGUUUAUUCAACAGCUCGCAGUCAAG,-0.104
6,GGUCACGUCUCAAUCAACUCUUCGCCCAGGGAAAUCCCUGGUAAUCUCAACAGCUCGCAGUCAAG,-0.0773
7,GGUCACGUCUCAAUCAACUCUAUCGCAGGAGUUUCCUCCUGGUUAUUCAACAGCUCGCAGUCAAG,0.0533
8,GGUCACGUCUCAAUCAACUCAACUCCCAGGGAAACCCCUGGUAAUCUCAACAGCUCGCAGUCAAG,0.126
9,GGUCACGUCUCAAUCAACUCAAUUUCAGGAGUUUUCUCCUGCUAUGUCAACAGCUCGCAGUCAAG,0.0516
10,GGUCACGUCUCAAUCAACUCUUCGUCCAGGGAAACCCCUGGUUAUUUCAACAGCUCGCAGUCAAG,-0.305
11,GGUCACGUCUCAAUCAACUCUUCUCCCAGGGAAAACCCUGGCUUUCUCAACAGCUCGCAGUCAAG,0.27
12,GGUCACGUCUCAAUCAACUCAUCUCCAGGAGUUUUCUCCUGUUUUCUCAACAGCUCGCAGUCAAG,0.0102
13,GGUCACGUCUCAAUCAACUCCUUAGAGGGGGGGAAAACCCCUUUACCCUCAAACUCAACAGCUCGCAGUCAAG,-0.0253
14,GGUCACGUCUCAAUCAACUCUUCCCCAGGAGUUUCCUCCUGCAAAUUCAACAGCUCGCAGUCAAG,0.185
15,GGUCACGUCUCAAUCAACUCCUCCGAGGGGGGGAAAACCCCUUUACCCUCACAAUCAACAGCUCGCAGUCAAG,-0.18
16,GGUCACGUCUCAAUCAACUCUUCUUCCAGGGAAAUCCCUGGUUAUUUCAACAGCUCGCAGUCAAG,0.0519
17,GGUCACGUCUCAAUCAACUCAUCCUCCAGGGAAAUCCCUGGUAUUUUCAACAGCUCGCAGUCAAG,-0.203
18,GGUCACGUCUCAAUCAACUCUUACGAGGGGGGGAAAACCCCUUUACCCUCAACUUCAACAGCUCGCAGUCAAG,-0.468
19,GGUCACGUCUCAAUCAACUCUUCGUCAGGAGUUUACUCCUGUAUUUUCAACAGCUCGCAGUCAAG,-0.00665
20,GGUCACGUCUCAAUCAACUCCUUCGAGGGGGGGAAAACCCCUUUACCCUCAAACUCAACAGCUCGCAGUCAAG,-0.152
21,GGUCACGUCUCAAUCAACUCAUUUUCCAGGGAAAACCCUGGCUUAUUCAACAGCUCGCAGUCAAG,-0.0462
22,GGUCACGUCUCAAUCAACUCAACGGCAGGAGUUUACUCCUGGAAUCUCAACAGCUCGCAGUCAAG,-0.11
23,GGUCACGUCUCAAUCAACUCAAUUCCCAGGGAAAGCCCUGGCUUUCUCAACAGCUCGCAGUCAAG,0.183
